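How tested: cells in 96-well plates exposed to compound for 48 hours at five concentrations. Here, GI50 denotes the concentration required for 50% inhibition of growth. At the TGI there is no net growth.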
Each molecule was assayed on NCI-H322M lung (assay: NCI-60 cell line screen, 48 h).
With `CC1=C(CCC=NNC(N)=O)C2=C(C)C3(CC3)[C@@](C)(O)C(=O)C2=C1` the GI50 was 346 nM and the TGI was 1970 nM.
`CN1CCN(Cc2ccc(NC(=O)c3cncc(C#Cc4cnc5ccc(O[C@H]6CCOC6)nn45)c3)cc2C(F)(F)F)CC1` showed a GI50 of 441 nM and a TGI of 1540 nM.
Molecule `O=c1nc(Nc2ccc([N+](=O)[O-])cc2O)sc2ccccc12` has a GI50 of 7230 nM and a TGI greater than 16700 nM.
